Assay results taken from PMC6218473, “Recognition of host Clr-b by the inhibitory NKR-P1B receptor provides a basis for missing-self recognition” (Nature Communications, 2018).
Where a chain is given by its changes, count along the chain named. Numbers in names are those of the source. These are yes or no findings as the source states them, for the method shown. Some binding calls cover weakened binding; strength is not graded here.

T1: Clr-b on transfected HEK293T cells (mouse) (UniProt Q91V08)
T1 sequence: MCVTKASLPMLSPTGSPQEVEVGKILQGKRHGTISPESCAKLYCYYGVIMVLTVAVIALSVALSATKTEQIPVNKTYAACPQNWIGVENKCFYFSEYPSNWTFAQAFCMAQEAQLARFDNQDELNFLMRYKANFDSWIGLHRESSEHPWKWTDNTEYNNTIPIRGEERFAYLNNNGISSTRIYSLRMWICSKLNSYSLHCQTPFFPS

B1: NKR-P1B tetramers (biotinylated NKR-P1B on streptavidin) (domain or fragment, UniProt Q99JB4 89-215)
chain: SAKLECPQDWLSHRDKCFHVSQVSNTWKECRIDCDKKGATLLLIQDQEELRFLLDSIKEKYNSFWIGLSYTLTDMNWKWINGTAFNSDVLKITGVTENGSCAAISGEKVTSEGCSSDNRWICQKELN
modifications: biotin on the BirA tag
B2: NKR-P1B D205A mutant tetramer (domain or fragment, UniProt Q99JB4 89-215)
chain: B1 chain with D117A
modifications: biotin on the BirA tag
B3: NKR-P1B R207A mutant tetramer (domain or fragment, UniProt Q99JB4 89-215)
chain: B1 chain with R119A
modifications: biotin on the BirA tag
B4: NKR-P1B V183A mutant tetramer (domain or fragment, UniProt Q99JB4 89-215)
chain: B1 chain with V95A
modifications: biotin on the BirA tag
B5: NKR-P1B Y149A mutant tetramer (domain or fragment, UniProt Q99JB4 89-215)
chain: B1 chain with Y61A
modifications: biotin on the BirA tag
B6: NKR-P1B T184A mutant tetramer (domain or fragment, UniProt Q99JB4 89-215)
chain: B1 chain with T96A
modifications: biotin on the BirA tag
B7: NKR-P1B S188A mutant tetramer (domain or fragment, UniProt Q99JB4 89-215)
chain: B1 chain with S100A
modifications: biotin on the BirA tag
B8: NKR-P1B S204A mutant tetramer (domain or fragment, UniProt Q99JB4 89-215)
chain: B1 chain with S116A
modifications: biotin on the BirA tag
B9: NKR-P1B N150A mutant tetramer (domain or fragment, UniProt Q99JB4 89-215)
chain: B1 chain with N62A
modifications: biotin on the BirA tag
B10: NKR-P1B S199A mutant tetramer (domain or fragment, UniProt Q99JB4 89-215)
chain: B1 chain with S111A
modifications: biotin on the BirA tag
B11: NKR-P1B N206A mutant tetramer (domain or fragment, UniProt Q99JB4 89-215)
chain: B1 chain with N118A
modifications: biotin on the BirA tag
B12: NKR-P1B N113A mutant tetramer (domain or fragment, UniProt Q99JB4 89-215)
chain: B1 chain with N25A
modifications: biotin on the BirA tag
B13: NKR-P1B S203A mutant tetramer (domain or fragment, UniProt Q99JB4 89-215)
chain: B1 chain with S115A
modifications: biotin on the BirA tag
B14: NKR-P1B S204R mutant tetramer (domain or fragment, UniProt Q99JB4 89-215)
chain: B1 chain with S116R
modifications: biotin on the BirA tag
B15: NKR-P1B E200A mutant tetramer (domain or fragment, UniProt Q99JB4 89-215)
chain: B1 chain with E112A
modifications: biotin on the BirA tag

target: T1, Clr-b on transfected HEK293T cells (mouse); assay: flow cytometry on cells; PE-labelled NKR-P1B tetramers on transfected HEK293T or transduced BWZ cells; 1 h on ice in flow buffer (HBSS, 0.5% BSA, 0.03% NaN3); only the binder purified

| binding | Binder |
| --- | --- |
| binds | B1 |
| no binding | B2 |
| no binding | B3 |
| binds | B4 |
| binds | B5 |
| no binding | B6 |
| no binding | B7 |
| no binding | B8 |
| binds | B9 |
| no binding | B10 |
| no binding | B11 |
| binds | B12 |
| no binding | B13 |
| no binding | B14 |
| no binding | B15 |
